Experimental data: the supplement of paper PMC8183993
Counter-ions that a name gives are not always drawn. ± gives the standard deviation of the averaged measurements. Over roughly 3,200 compounds, “nuclei count (viability) relative to DMSO” has its median near 99; the lowest 2% begin near 16. Some of the results follow.

These molecules were tested on U2OS (assay: nuclei count (viability) relative to DMSO (% of DMSO); higher = more viable cells). Details: 10 µM; 24 h.
Method: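 Primary image-based screen in U2OS cells: compounds at 10 uM for 24 h, then a 1 h o-propargyl-puromycin (OPP) pulse, click labelling, and high-throughput microscopy. Mean cytoplasmic OPP intensity and nuclei count were normalised to DMSO wells within each plate (DMSO = 100) and averaged over triplicate plates.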

Row | Compound | nuclei count
1 | C[C@@H]1CN(CCCn2c3ccccc3c3ccccc32)C[C@H](C)N1 [Rimcazole dihydrochloride] | 80
2 | CC(C)(C)c1ccc(/C=C/C(=O)Nc2ccc3c(c2)OCCO3)cc1 | 96.6
3 | O=C(CCCCCCC(=O)Nc1cccnc1)NO [Pyroxamide] | 54.1
4 | CCc1ccc(CCOc2ccc(CC3SC(=O)NC3=O)cc2)nc1 (configuration not stated) [Pioglitazone] | 100.7 ± 0.79
5 | Cc1ccc(S(=O)(=O)C=CC#N)cc1 | 18.5
6 | Cc1ccc(N(CC2=NCCN2)c2cccc(O)c2)cc1 [Phentolamine hydrochloride] | 106
7 | Cc1ccc(N(CC2=NCCN2)c2cccc(O)c2)cc1 [Phentolamine HCl] | 99.6
8 | CC(Oc1ccc(O)cc1)(P(=O)(O)O)P(=O)(O)O | 105 ± 0.12
9 | CCCSc1ccc2[nH]c(NC(=O)OC)nc2c1 [Albendazole] | 30.6
10 | CCCSc1ccc2[nH]c(NC(=O)OC)nc2c1 [Albendazole (Albenza)] | 30.8
11 | Cc1c(Cl)cccc1Nc1ccccc1C(=O)O [Tolfenamic acid] | 111
12 | CN(C)CCC1(c2ccc(Cl)cc2)Cc2ccccc2C(=O)O1 (racemic) [(±)-AC 7954 hydrochloride] | 105
13 | CO[C@H]1/C=C/O[C@@]2(C)Oc3c(C)c(O)c4c(O)c(c(/C=N/N5CCN(C)CC5)c(O)c4c3C2=O)NC(=O)/C(C)=C\C=C\[C@H](C)[C@H](O)[C@@H](C)[C@@H](O)[C@@H](C)[C@H](OC(C)=O)[C@@H]1C [Rifampin (Rifadin, Rimactane)] | 105
14 | CO[C@H]1/C=C/O[C@@]2(C)Oc3c(C)c(O)c4c(O)c(c(/C=N/N5CCN(C)CC5)c(O)c4c3C2=O)NC(=O)/C(C)=C\C=C\[C@H](C)[C@H](O)[C@@H](C)[C@@H](O)[C@@H](C)[C@H](OC(C)=O)[C@@H]1C [Rifampicin] | 95.2 ± 11
15 | COc1cc(F)c(C(C)C)cc1-c1ccc(C(F)(F)F)cc1CN1C(=O)O[C@H](c2cc(C(F)(F)F)cc(C(F)(F)F)c2)[C@@H]1C [Anacetrapib (MK-0859)] | 96.6
16 | CC[C@H]1OC(=O)[C@H](C)[C@@H](O[C@H]2C[C@@](C)(OC)[C@@H](O)[C@H](C)O2)[C@H](C)[C@@H](O[C@@H]2O[C@H](C)C[C@H](N(C)C)[C@H]2O)[C@](C)(O)C[C@@H](C)C(=O)[C@H](C)[C@@H](O)[C@]1(C)O [Erythromycin] | 109
17 | CC[C@H]1OC(=O)[C@H](C)[C@@H](O[C@H]2C[C@@](C)(OC)[C@@H](O)[C@H](C)O2)[C@H](C)[C@@H](O[C@@H]2O[C@H](C)C[C@H](N(C)C)[C@H]2O)[C@](C)(O)C[C@@H](C)C(=O)[C@H](C)[C@@H](O)[C@]1(C)O [Erythromycin (E-Mycin)] | 98.4
18 | O=C1c2ccccc2C(=O)C1c1ccccc1 [Phenindione] | 101
19 | CC(C)[C@@H](C)/C=C/[C@@H](C)[C@H]1CC[C@H]2C3=CC=C4C[C@@H](O)CC[C@]4(C)[C@H]3CC[C@]12C [Ergosterol] | 103
20 | O=C(c1cc(Cc2n[nH]c(=O)c3ccccc23)ccc1F)N1CCN(C(=O)C2CC2)CC1 [Olaparib] | 75.7
21 | O=C(c1cc(Cc2n[nH]c(=O)c3ccccc23)ccc1F)N1CCN(C(=O)C2CC2)CC1 [Olaparib (AZD2281)] | 85.3
22 | O=C(O)CCCc1c[nH]c2ccccc12 [3-Indolebutyric acid (IBA)] | 97.2
23 | Clc1ccc2c(c1)C(N1CCNCC1)=Nc1ccccc1O2 [Amoxapine] | 92.8
24 | O=C(O)CCc1nc(-c2ccccc2)c(-c2ccccc2)o1 [Oxaprozin] | 103

Row | Compound | nuclei count
25 | CCCCCCCCOC(=O)/C=C/c1ccc(O)c(O)c1 [n-Octyl caffeate] | 82
26 | OCCN1CCN(CCCN2c3ccccc3Sc3ccc(C(F)(F)F)cc32)CC1 [Fluphenazine dihydrochloride] | 99.5
27 | CC(C)(Oc1ccc(CCNC(=O)c2ccc(Cl)cc2)cc1)C(=O)O [Bezafibrate] | 99.2 ± 17
28 | c1ccc(CC2=NCCN2)cc1 [Tolazoline hydrochloride] | 99.9
29 | CC(C)C[C@H](NC(=O)[C@H](Cc1ccccc1)NC(=O)c1cnccn1)B(O)O [Bortezomib (Velcade)] | 7.65
30 | O=C(OCCN1CCOCC1)C1(c2ccccc2)CCCCC1 [PRE-084 hydrochloride] | 101
31 | COc1ccc(CC(C)NCC(O)c2ccc(O)c(NC=O)c2)cc1 (configuration not stated) [Formoterol hemifumarate] | 95.5
32 | COc1ccc(CC(C)NCC(O)c2ccc(O)c(NC=O)c2)cc1 (configuration not stated) [Formoterol fumarate] | 104
33 | CS(=O)(=O)c1ccc(C(=O)Nc2ccc(Cl)c(-c3ccccn3)c2)c(Cl)c1 [Vismodegib (GDC-0449)] | 96
34 | COc1ccc(-c2coc3cc(O)ccc3c2=O)cc1 [Formononetin (Formononetol)] | 105
35 | CN1CCN(S(=O)(=O)c2ccc(-c3cnc(N)c(C(=O)Nc4cccnc4)n3)cc2)CC1 | 98.9
36 | CNc1nc(-c2ccc3c(N)n[nH]c3c2)cc(N2C[C@@H](C(=O)NC3CCCCC3)CC[C@H]2C)n1 | 72.5
37 | CCOC(=O)N1CCC(=C2c3ccc(Cl)cc3CCc3cccnc32)CC1 [Loratidine] | 96
38 | CCOC(=O)N1CCC(=C2c3ccc(Cl)cc3CCc3cccnc32)CC1 [Loratadine] | 94.4
39 | CC(C)Cc1ccc(C(C)C(=O)NO)cc1 (configuration not stated) [Ibuproxam] | 95.9
40 | Nc1nc(F)nc2c1ncn2[C@@H]1O[C@H](COP(=O)(O)O)[C@@H](O)[C@@H]1O [Fludarabine Phosphate (Fludara)] | 96.4
41 | O=C(NOCC1CC1)c1ccc(F)c(F)c1Nc1ccc(I)cc1Cl | 91.3
42 | CC1(C)CCC(c2ccc(Cl)cc2)=C(CN2CCN(c3ccc(C(=O)NS(=O)(=O)c4ccc(N[C@H](CCN5CCOCC5)CSc5ccccc5)c(S(=O)(=O)C(F)(F)F)c4)cc3)CC2)C1 [ABT-263 (Navitoclax)] | 69.9
43 | COc1[nH]c2ccc(F)cc2c1C(=O)OCC1CCN(CCNS(C)(=O)=O)CC1.NS(=O)(=O)O | 103
44 | COC(=O)[C@H](c1ccccc1Cl)N1CCc2sccc2C1 [Clopidogrel (Plavix)] | 103
45 | C[C@]12CCC(=O)C=C1CC[C@@H]1[C@@H]2C(=O)C[C@@]2(C)[C@H]1CC[C@]2(O)C(=O)CO [Cortisone] | 94.3 ± 6.4
46 | COCCCC/C(=N\OCCN)c1ccc(C(F)(F)F)cc1 [Fluvoxamine maleate] | 105 ± 4.9
47 | CCCCC1CCC(c2nc(-c3ccncc3)no2)CC1 (configuration not stated) | 96.5
48 | O=C(Nc1cc(C(F)(F)F)cc(C(F)(F)F)c1)c1cc(Cl)ccc1O | 78.7

Row | Compound | nuclei count
49 | CN(C)[C@@H]1C(O)=C(C(N)=O)C(=O)[C@@]2(O)C(O)=C3C(=O)c4c(O)cccc4[C@@](C)(O)[C@H]3C[C@@H]12 [Tetracycline hydrochloride] | 112
50 | NC(=O)N1CCC(CC(=O)N2CCC([C@H]3c4ncc(Br)cc4CCc4cc(Cl)cc(Br)c43)CC2)CC1 | 75.9
51 | C[C@H](N[C@@H](CCc1ccccc1)C(=O)O)C(=O)N1CCC[C@H]1C(=O)O [Enalaprilat dihydrate] | 94.3
52 | O=C1N[C@H](C(=O)O)CS1 [Procysteine] | 106
53 | COc1ccc(CN2C(=O)C(=O)c3cc(OC(F)(F)F)ccc32)cc1 | 17.3
54 | Cc1nnc(C(=O)NC(C)(C)c2nc(C(=O)NCc3ccc(F)cc3)c(O)c(=O)n2C)o1 [Raltegravir (MK-0518)] | 101
55 | c1ccc(NCc2ccc(CNc3ccccn3)cc2)nc1 | 107
56 | O=C(O)c1cn(-c2ccc(F)cc2)c2cc(N3CCNCC3)c(F)cc2c1=O [Sarafloxacin] | 89.2
57 | C[C@@H](NCc1cc(Br)cc2[nH]c(=O)c(=O)[nH]c12)P(=O)(O)O | 99.8
58 | CC[C@H](/C=C/[C@@H](C)[C@H]1CC[C@H]2[C@@H]3CC=C4C[C@@H](O)CC[C@]4(C)[C@H]3CC[C@]12C)C(C)C [Stigmasterol (Stigmasterin)] | 105
59 | COc1cccc(/C=N/N=C/c2cccc(OC)c2)c1 | 102
60 | O=C(NC[C@H]1CN(c2ccc(N3CCOCC3=O)cc2)C(=O)O1)c1ccc(Cl)s1 [Rivaroxaban (Xarelto)] | 109
61 | O=C(O)c1ccc(O)c(O)c1 [Protocatechuic acid] | 102
62 | C[C@@H]1C[C@H]2[C@@H]3C[C@H](F)C4=CC(=O)C=C[C@]4(C)[C@@]3(F)[C@@H](O)C[C@]2(C)[C@@]1(O)C(=O)CO [Flumethasone] | 113
63 | Cc1cc2c(cc1CC(=O)c1sccc1S(=O)(=O)Nc1onc(C)c1Cl)OCO2 | 103
64 | O=C(O)Cc1ccc(-c2ccccc2)cc1 [Felbinac] | 104
65 | N[C@H](C(=O)O)c1ccc(O)c(C(=O)O)c1 [(S)-3-Carboxy-4-hydroxyphenylglycine] | 106
66 | C[C@@]1(C(=O)Nc2ccc(F)nc2)CCCN1c1nc(Nc2cc(C3CC3)n[nH]2)c2cccn2n1 | 39.4
67 | Clc1ccc(CCC(Cn2ccnc2)Sc2c(Cl)cccc2Cl)cc1 (configuration not stated) [Butoconazole nitrate] | 103
68 | N#Cc1ccc(C(c2ccc(C#N)cc2)n2cncn2)cc1 [Letrozole] | 105
69 | C[N+]1(C)CCC(OC(=O)C(O)(c2ccccc2)C2CCCC2)C1 (configuration not stated) [Glycopyrrolate] | 109
70 | O=C(Nc1cccc(Cl)c1)c1ccccn1 | 97.7
71 | NCc1ccccc1CC(=O)N[C@@H]1C(=O)N2C(C(=O)O)=C(CSc3nnnn3CC(=O)O)CS[C@H]12 [Ceforanide] | 100
72 | N=C(NCCCCCCNC(=N)NC(=N)Nc1ccc(Cl)cc1)NC(=N)Nc1ccc(Cl)cc1 [Chlorhexidine] | 75.6
